From PubChem BioAssay AID1963828 (Molecular Pharmacology Branch, DTP, NCI, 2024)
A number of entries come with more than one value. The list is limited to them. The source may hold further records. The records of an entry repeat one measurement in other runs, samples, wells, individuals or studies. Marks such as (2×) stand for listed records that agree.

Tested on: 991263-137-R1-J2-PDC complex spheroid viability
Experiment: Anticancer human tumor 991263-137-R1-J2-PDC patient-derived colon adenocarcinoma cell line growth inhibition [POLQ]
Conditions: for viability, T/C: stronger effect = lower value
Protocol: Multicellular complex tumor spheroid response to Polymerase (POL) inhibitors (novobiocin, ART-558, RP6685) in combination with a variety of drugs and investigational agents in selected tumor cell lines
The POL inhibitors (novobiocin, ART-558, and RP6685) were evaluated both individually and in combination with standard of care and investigational anticancer small molecules within a complex spheroid model of solid tumors. . Complex spheroids include a stromal component modeled by human endothelial cells (HUVEC) and fibroblasts modeled by human mesenchymal stem cells (MSCs). The concentration ranges selected for each drug and investigational agent were based upon clinically achievable concentrations if the clinical Cmax of the agent was known.
Compounds. The drugs and investigational agents: novobiocin (NSC847541), ART-558 (NSC835418), RP-6685 (NSC848927), peposertib (NSC802822), ceralasertib (NSC780249), elimusertib (NSC800525), camonsertib (NSC841442), AZD-1390 (NSC803789), olaparib (NSC753686), talazoparib (NSC767125), rucaparib (NSC756644), sotorasib (NSC818433), MRTX-1133 (NSC836407), SN-38 (NSC673596), topotecan (NSC609699), epotoside (NSC141540), doxorubicin (NSC123127), gemcitabine (NSC613327), 5-fluorouracil (NSC19893), paclitaxel (NSC125973), vemurafenib (NSC761431), MSA-2 (NSC828583), SN-011 (NSC837082), adavosertib (NSC754352), prexasertib (NSC758257), carboplatin (NSC241240) and oxaliplatin (NSC266046), were obtained from the National Cancer Institute (NCI) Developmental Therapeutics Program Chemical Repository (21). The FDA-approved anticancer drug set is available from the Developmental Therapeutics Program at https://dtp.cancer.gov/organization/dscb/obtaining/. […] The stock solutions were prepared in dimethyl sulfoxide (DMSO, Sigma-Aldrich, St. Louis, MO, cat. D2650), except for the platinum compounds which were prepared in saline (Quality Biological, Gaithersburg, MD, cat. 114-055-101), at 800-fold the tested concentration and stored at -70 degrees C prior to their use. All drugs and investigational agents were tested over a range starting from a high concentration at or near the clinical Cmax and decreasing in half-log increments. If the clinical Cmax for an agent had not been determined, the highest concentration tested was 10 microM, except for SN-38, which was tested at a high concentration of 1 microM.
Cell Culture. All cells were maintained in an incubator at 37 degrees C and 5% CO2 with 95% humidity. The PDC lines were cultured according to standard operating procedures established by the NCI PDMR (https://pdmr.cancer.gov). Table 3 of the manuscript, lists the cell lines along with the number of the three cell types plated to form the mct-spheroids and media for tumor cell growth. After thawing, all PDC lines, except 997537-175-T-J1-PDC and 415267-285-R-J2-PDC, were cultured in Matrigel-coated flasks prepared with a working solution of 1X Ham's F-12 nutrient mix, without supplementation (Thermo Fisher Scientific, cat. 11765054), 100 U/mL penicillin-streptomycin (Thermo Fisher Scientific, cat. 15140122), and 2.5% Matrigel (Corning Inc., Corning, NY, cat. 354248) for the first three passages. The two PDC lines 997537-175-T-J1-PDC and 415267-285-R-J2-PDC were cultured on uncoated flasks. The 857933-349-R-J2-PDC line was cultured in 6C/Colon 1B media containing advanced DMEM/F-12 (Thermo Fisher Scientific, cat. 12634028), 10 mM HEPES (Thermo Fisher Scientific, cat. 15630080), 1X GlutaMAX supplement (Thermo Fisher Scientific, cat. 35050061), 0.1 mg/mL primocin (InvivoGen, San Diego, CA, cat. ant-pm-2), 10% defined fetal bovine serum, heat inactivated (HyClone Laboratories Inc., Logan, UT, cat. SH30070.03HI), 50% L-WRN conditioned media (ATCC, cat. CRL-3276), 1.25 mM N-Acetyl-L-cysteine (Sigma-Aldrich, cat. A9165), 10 mM nicotinamide (Sigma-Aldrich, cat. N0636), 1X B-27 supplement (Thermo Fisher Scientific, cat. 17504044), 1X N-2 supplement (Thermo Fisher Scientific, cat. […]
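Further: spheroids exposed to compounds for 7 days before readout.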
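Wherever viability, T/C is given: 100% = DMSO vehicle control viability.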

Compound | viability, T/C (compound alone 3.16 µM) | viability, T/C (compound alone 1 µM) | further results
CC(C)n1c(=O)n(C)c2cnc3cc(F)c(-c4ccc(OCCCN5CCCCC5)nc4)cc3c21 | – | – | viability, T/C (compound alone 10 µM): 84.2%, 72.9%, 103%
O=C(c1cc(Cc2n[nH]c(=O)c3ccccc23)ccc1F)N1CCN(C(=O)C2CC2)CC1 | – | – | viability, T/C (compound alone 10 µM): 74.9%, 104%, 97.2%
C=CCn1c(=O)c2cnc(Nc3ccc(N4CCN(C)CC4)cc3)nc2n1-c1cccc(C(C)(C)O)n1 | – | – | viability, T/C (compound alone 0.316 µM): 74%, 107%, 111%
COc1cccc(OCCCN)c1-c1cc(Nc2cnc(C#N)cn2)n[nH]1 | – | – | viability, T/C (compound alone 0.1 µM): 45.8%, 89.4%, 85.8%
O=c1[nH]cc(F)c(=O)[nH]1 | 90.3%, 70.6%, 96.3% | – | –
COc1cc(C2c3cc4c(cc3C(OC3OC5COC(C)OC5C(O)C3O)C3COC(=O)C23)OCO4)cc(OC)c1O (stereo not given) | – | – | viability, T/C (compound alone 0.316 µM): 113%, 93.2%, 86.6%
Nc1ccn(C2OC(CO)C(O)C2(F)F)c(=O)n1 (stereo not given) | – | – | IC50 (compound alone): 627 nM, 1.32 µM, 7.71 µM
CCCS(=O)(=O)Nc1ccc(F)c(C(=O)c2c[nH]c3ncc(-c4ccc(Cl)cc4)cc23)c1F | – | 70.9%, 107%, 106% | –
COc1cc2cc(C(=O)CCC(=O)O)sc2cc1OC | 86.6%, 100%, 113% | 127%, 95.9%, 92.4% | –
COC1C(OC(N)=O)C(O)C(Oc2ccc3c(O)c(NC(=O)c4ccc(O)c(CC=C(C)C)c4)c(=O)oc3c2C)OC1(C)C (stereo not given) | 93.2, 104, 93.4, 108, 96.8, 98.7, 88.8, 95.3, 81.5, 99.6, 98.8, 96.6% | 108, 102, 103, 97, 105, 98.3, 118, 107, 92.3, 115, 89, 92.8% | viability, T/C (compound alone 0.1 µM): 89.6, 92.6, 102, 104, 101 (2×), 98, 109, 82.4, 88.4, 116, 108%; viability, T/C (compound alone 10 µM): 89.6, 94.5, 93.6, 102, 93.3, 113, 101 (2×), 79.9, 89.3, 90.2, 89.8%
C=CC(=O)N1CCN(c2nc(=O)n(-c3c(C)ccnc3C(C)C)c3nc(-c4c(O)cccc4F)c(F)cc23)C(C)C1 (stereo not given) | 107%, 92.8%, 123% | – | –
CCc1cc2c(N3CCc4c(cc(Cn5ccnc5)cc4-c4cn(C)nc4C(F)(F)F)C3=O)cc(C)nc2c(OC)n1 | – | 68.5%, 98.5%, 97% | viability, T/C (compound alone 0.316 µM): 104%, 120%, 86.7%
CNCc1ccc(-c2[nH]c3cc(F)cc4c3c2CCNC4=O)cc1 | 81% and 108% (2×) | – | –
Cc1cccc(N(C)C(=O)C2C(O)CCN2c2nc(C)cc(C(F)(F)F)c2C#N)c1 (stereo not given) | – | 94.4, 104, 100, 95.9, 107, 72.5, 91.9, 91.8, 98.1, 101, 93.4, 99, 103% | viability, T/C (compound alone 0.316 µM): 103 (2×), 99.7, 95.8, 105, 109, 82.6, 96.3, 89.6, 106, 98.8, 113, 101%
